# PubChem BioAssay AID1745853 (National Center for Advancing Translational Sciences (NCATS), 2022)
# Some of the results follow. These are further read-outs of the screen, such as a control signal, another cell line or another target. No call is given for them.
# Key:
# Assay in all cases: Primary Screen for Target Class Profiling of Small Molecule Inhibitors of Methyltransferases
# [1] = target: Glycine N-methyltransferase (Homo sapiens) (UniProt Q14749); details: purified enzyme, MTase-Glo SAH luminescence; measured here: GNMT inhibition; at 40 µM; stronger effect = lower value
# Method in brief: (§1)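 Each enzyme was assayed with SAM and its substrate. SAH formation detected by MTase-Glo luminescence; single-point 40 uM screen[…].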
# [2] = target: Guanidinoacetate N-methyltransferase (Homo sapiens) (UniProt Q14353); details: purified enzyme, MTase-Glo SAH luminescence; measured here: GAMT inhibition; at 40 µM; stronger effect = lower value
# Method in brief: as §1
# [3] = target: Histamine N-methyltransferase (Homo sapiens) (UniProt P50135); details: purified enzyme, MTase-Glo SAH luminescence; measured here: HNMT inhibition; at 40 µM; stronger effect = lower value
# Method in brief: as §1
# [4] = target: Nicotinamide N-methyltransferase (Homo sapiens) (UniProt P40261); details: purified enzyme, MTase-Glo SAH luminescence; measured here: NNMT inhibition; at 40 µM; stronger effect = lower value
# Method in brief: as §1
# [5] = target: Phenylethanolamine N-methyltransferase (Homo sapiens) (UniProt P11086); details: purified enzyme, MTase-Glo SAH luminescence; measured here: PNMT inhibition; at 40 µM; stronger effect = lower value
# Method in brief: as §1
# % is scaled to controls: 0 for no effect and ±100 for the full control effect.
Compound,"activity change, negative = inhibition [1]","activity change, negative = inhibition [2]","activity change, negative = inhibition [3]","activity change, negative = inhibition [4]","activity change, negative = inhibition [5]"
COc1cccc(CNC(=O)CCn2ccc3cc(S(=O)(=O)N4CCCC4)ccc32)c1,-8.89%,2.02%,-2.81%,-12.1%,-2.19%
Cc1cn2c(=O)cc(CN3CC[C@@](C)(O)[C@@H](O)C3)nc2s1,-6.94%,-6.29%,-1.54%,-9.66%,-3.89%
C[C@@H]1O[C@@H](O[C@H]2[C@H](O)[C@@H](O)[C@H](OC3CCC4(C)C5CCC(C)(C(CO)OC6OC(CO)C(O)C(O)C6O)CC5=CCC4C3(C)C)O[C@@H]2CO)[C@H](O)[C@H](O)[C@H]1O (stereo not given in full),-1.49%,-9.61%,1.38%,-19.9%,-0.413%
C=C1C[C@]23C[C@H]1CC[C@H]2[C@@]1(C)CCC[C@@]2(C)C(=O)O[C@@H]([C@@H]3O)[C@@H]12,0.979%,0.184%,9.23%,-14.4%,-10.3%
COc1ccc(-c2nc(-c3ccc(S(=O)(=O)N4CCCCC4)cc3)no2)cc1OC,-3.12%,6.09%,5.2%,-0.043%,1.72%
CC1CCN(C(=O)CCn2ccc3cc(S(=O)(=O)N4CCCCC4)ccc32)CC1,2.67%,0%,0.775%,2.35%,0.198%
Nc1ccc(C(=O)Nc2cccc(-c3nc(N4CCOCC4)c4oc5ncccc5c4n3)c2)cn1,-8.7%,11.3%,-9.07%,-9.43%,0.955%
CCCS(=O)(=O)N1C[C@@H](COC)[C@H](c2nc(C)no2)C1,-6.04%,-8.62%,-2.51%,-18.9%,-11.4%
Cc1ccccc1CN1C(=O)c2cc(-c3ccco3)nn2CC1(C)C(=O)NC1CCCCCC1 (stereo not given),-12%,0.644%,-11.7%,-9.87%,-8.5%
Cc1ccccc1CNC(=O)C1(C)Cc2ccccc2C(=O)N1CCC(C)C (stereo not given),3.43%,1.91%,-1.65%,-2.5%,-1.86%
COc1ccc(C2(O)CCC(N3CC[C@@H](NC(=O)CNC(=O)c4cccc(C(F)(F)F)c4)C3)CC2)cn1 (stereo not given in full),-8.54%,-27.7%,-4.39%,-28.8%,-18.5%
COc1ccc(-c2cc3n(n2)CC(C)(C(=O)NCc2ccccc2)N(c2ccc(OC)cc2)C3=O)cc1 (stereo not given),0.087%,3.62%,-3.67%,2.08%,-4.09%
CCCCCCOC(=O)/N=C(\N)c1ccc(NCc2nc3cc(C(=O)N(CCC(=O)OCC)c4ccccn4)ccc3n2C)cc1,0.976%,,-38.9%,,
O=c1n(CCN2CCCN([S+](=O)([O-])c3cccc(C(F)(F)F)c3)CC2)nc2n1CCCC2,-5.14%,-4.71%,-1.02%,-8.14%,-11.7%
CC(=O)Nc1cccc(-c2n[nH]c3c2CC(=O)N(CCOc2ccccc2)C3)c1,-22.3%,-14.6%,-24.4%,-23.5%,-25.7%
Cc1nn(C)c(C)c1CCC(=O)NCCc1ncc(C)n1C1CCCCC1,-3.54%,-4.04%,-35.1%,-13.9%,7.53%
CS(=O)(=O)N(C1CCOCC1)C1CN(S(=O)(=O)c2ccccc2)C1,2.18%,-1.87%,1.08%,1.49%,-3.73%
CC(C)n1cnc2c(NCc3cccc(C(F)(F)F)c3)ncnc21,,7.24%,,-19.1%,-9.84%
Cc1cccc(CNC(=O)C2(C)Cn3cnc(C(=O)NCCc4cccs4)c3C(=O)N2C2CC2)c1 (stereo not given),2.59%,1.86%,11.1%,5.1%,9.68%
CN(C)CCCN1c2ccccc2Sc2ccc(Cl)cc21,-1.71%,16.2%,-2.25%,-13.4%,2.47%
COC(=O)c1ccc([C@@H]2Nc3ccc(OC)cc3[C@@H]3C=CC[C@@H]32)cc1,-6.58%,3.66%,-3.02%,-16.9%,-13.4%
Nc1nc(C2CC(NC(=O)c3[nH]nc(N)c3-c3ccccc3)C2)cc(=O)[nH]1 (stereo not given),-7.34%,-7.61%,-9.42%,-5.39%,-5.36%
Cc1nnc(-c2cc(-c3ccc(CO)cc3)ccn2)n1Cc1ccccc1,-8.43%,-3.47%,-9.37%,-19.6%,-13.4%
CNc1ccc(C(=O)NCCCc2c(C)noc2C)cn1,-2.04%,-0.307%,-1.09%,-12.5%,-4.8%
Cc1nc(-c2cccnc2)sc1C(=O)Nc1ccccc1-c1cn2c(CN3CCOCC3)csc2n1,-2.38%,2.37%,3.03%,-8.39%,-2.92%
Cc1cccc2c1nc1n2[C@@H](CNCc2nc3ccccc3n2C)COC1,-10%,-6.84%,-11.7%,-29.3%,-6.11%
CCCNC(=O)c1cc2n(n1)CC(C)(C(=O)NCc1ccccc1)N(C)C2=O (stereo not given),3.69%,0%,-0.25%,5.17%,0.005%
COc1ccccc1CNC(=O)C1(C)Cn2nc(-c3ccccc3)cc2C(=O)N1Cc1cccc(OC)c1OC (stereo not given),8.64%,0.857%,9.36%,6.97%,2.79%

Compound,"activity change, negative = inhibition [1]","activity change, negative = inhibition [2]","activity change, negative = inhibition [3]","activity change, negative = inhibition [4]","activity change, negative = inhibition [5]"
O=C(Nc1ccccc1)N1CCCC(C(=O)N2CCC(N3CCOCC3=O)CC2)C1 (stereo not given),-4.56%,-9.78%,-3.07%,-14.4%,8.52%
Cc1ccc(Cn2nc3n(CCC(C)C)c(=O)c4ccccc4n3c2=O)cc1,3.87%,4.99%,8.03%,-2.53%,3.21%
COCCn1c(CN(C)Cc2sccc2C)cnc1S(=O)(=O)CC1CCCCC1,-2.93%,1.42%,-1.06%,-6.01%,9.75%
NC1(c2ccc(NC(=O)c3ccnc(-c4cc(C(=O)O)ccn4)c3)cc2)CC1,-7.86%,-6.76%,-17.1%,-13.9%,-2.52%
C[C@@H]1CCC2C(C)(C)[C@H](O)CC[C@]2(C)[C@@]12Cc1c(O)cc3c(c1O2)CNC3=O (stereo not given in full),2.11%,1.3%,6.43%,-15.8%,-3.56%
C=C1C2CCC3C(CCC4[C@@]3(C)CCC[C@@]4(C)C(=O)O)(C2)[C@@H]1OC(=O)/C(C)=C\C (stereo not given in full),-0.938%,-1.09%,10.3%,-18.1%,-1.63%
CCC(C)NC(=O)CSc1nnc2n(CC(C)C)c(=O)c3ccccc3n12 (stereo not given),-4.94%,-13.3%,6.56%,-7.7%,-5.08%
Cc1cnc(C(=O)N2C[C@H]3OC(=O)N(CCc4cccc(Cl)c4)[C@H]3C2)[nH]1,-5.97%,-11.5%,-5.21%,-17%,-11.7%
Cn1c(=O)n(-c2ccc(C(C)(C)C#N)cc2)c2c3cc(C#Cc4cccnc4)ccc3ncc21,0.318%,0.357%,2.34%,-12%,-6.72%
O=C1CC(C(=O)O)C2(CCN(c3cc(C(=O)O)c4ccccc4n3)CC2)N1 (stereo not given),-1.35%,-1.04%,1.17%,0.331%,-2.12%
C[C@@H]1O[C@@H](O[C@H]2[C@H](O[C@H]3[C@H](O[C@H]4CC[C@@]5(C)C(CC[C@]6(C)C5CC=C5[C@@H]7CC(C)(C)C[C@@H](O)[C@]7(C)CC[C@]56C)[C@@]4(C)CO)O[C@H](C(=O)O)[C@@H](O)[C@@H]3O)O[C@H](CO)[C@H](O)[C@@H]2O)[C@H](O)[C@H](O)[C@H]1O (stereo not given in full),0%,6.89%,5.75%,-16.8%,9.42%
O=C(CCCc1nnc2n3nc(-c4ccccc4)nc3c3ccccc3n12)N1CCN(c2ccccc2)CC1,-7.23%,1.8%,8.43%,12.3%,1.15%
CCCC1c2ccc(C)n2CCN1C(=O)NCc1cccc(OC)c1 (stereo not given),-10.3%,2.75%,-7.99%,-7.95%,-10.3%
COc1ccccc1Nc1ncc2c(n1)CN(C(=O)c1cc3ccccc3n1C)CCN2,-8.18%,-6.43%,-2.89%,-12.4%,-6.89%
CC(C)c1noc(CC2CCN(C(=O)c3cc4ccccc4[nH]3)CC2)n1,-0.762%,-6.41%,2.83%,-2.23%,-2.48%
C[C@@H](NC(=O)C1=C[C@@H](NS(=O)(=O)c2cccc(C(F)(F)F)c2)[C@@H](O)[C@H](O)C1)C(N)=O,-0.343%,0.955%,1.48%,0.222%,-20.4%
CC(C)OCCCn1c(=O)c2ccccc2n2c(SCC(=O)Nc3cc(F)ccc3F)nnc12,-7.1%,4.79%,-0.297%,-8.2%,-2.73%
Cc1cc(F)ccc1[C@H]1C[C@@H](N2CCN3C(=O)CC[C@H]3C2)CCN1C(=O)N(C)[C@H](C)c1cc(C(F)(F)F)cc(C(F)(F)F)c1,1.48%,23.7%,8.73%,3.22%,9.83%
CCOC(=O)c1cc2n(n1)CC(C)(C(=O)NCCCOC(C)C)N(c1cccc(CC)c1)C2=O (stereo not given),3.57%,4.65%,6.48%,3.29%,1.49%
COc1ccc(CNC(=O)c2cc3c(s2)CN(C2CC2)C3)cc1OC,-26.3%,-3.08%,-6.11%,-7.06%,-8.27%
O=C(CCc1nnc2n(CCc3ccccc3)c(=O)c3ccccc3n12)NCCc1ccccc1,-14.7%,1.61%,1.32%,-15.7%,-9.13%
C=CC(C)(O)CC/C=C(\C)C(=O)O[C@@H]1[C@@H](O)[C@H](OC(C)(C=C)CC/C=C(\C)C(=O)O[C@@H]2O[C@H](CO)[C@@H](O)[C@H](O)[C@H]2O)O[C@H](CO)[C@H]1OC(=O)/C(C)=C/CCC(C)(O)C=C (stereo not given in full),0%,6.79%,6.9%,-8.35%,7.32%
COc1cccc(CN2C(=O)c3nc4ccccc4n3CC2(C)C(=O)NC2CCCCC2C)c1OC (stereo not given),1.16%,0%,4.1%,4.88%,-1.38%
C=C1CC[C@]2(C(=O)O[C@@H]3O[C@H](CO)[C@@H](O)[C@H](O)[C@H]3O)CC[C@]3(C)C(=CCC4[C@@]5(C)C[C@H](O)[C@@H](O[C@@H]6O[C@H](C(=O)O)[C@@H](O)[C@H](O)[C@H]6O)[C@](C)(C=O)C5CC[C@]43C)C2C1 (stereo not given in full),7.6%,0.878%,11%,-13.5%,6.83%
Nc1ccn([C@@H]2O[C@H](CO)[C@@H](O)[C@@H]2O)c(=O)n1,-7.7%,4.99%,-0.568%,-6.93%,3.98%
Nc1ncnc2c1ncn2C1CCCO1 (stereo not given),-12.1%,-3.27%,-3.74%,-14%,-3.63%
Cc1cccc(-c2n[nH]n3c2nc(=O)c2ccc(C(=O)N4CCN(c5cc(C)ccc5C)CC4)cc23)c1,-18.6%,0%,-4.22%,-11.2%,-6.37%
